Experimental findings from the supplement of paper PMC10126150 are described below.

Values marked as one replicate rest on one cluster of the flow cell; about a third of the high ones do not repeat.
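Further: ATP exposure 15 min at 22 °C before imaging.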

For this series, the system named is ATP. Description: switch fluorescence ratio, 500 uM ATP over buffer (Cy3 cluster intensity, sum of 5 cycles each) (fold (ratio)); higher = stronger signal-on switching upon ATP binding; sequences stand for … in TCGTCGGCAGCGTCAGATGTGTATAAGAGACAGTTTTTTTTTTTTTTTTTTTTTTTTT…TC. The settings on record: aptamer strand: ATP DNA aptamer (quencher-CACCTGGGGGAGTATTGCGGAGGAAGG + anchor), 100 nM annealed; ATP concentration: 500 uM; one replicate. The essentials:
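Cy3-labelled switching-strand clusters on a modified Illumina MiSeq flow-cell were annealed to 100 nM quencher-labelled ATP aptamer and imaged first in selection buffer, then after 15 min with 500 uM ATP at 22 °C. NaOH stripping and re-annealing separated each of five buffer/ATP cycles, and clusters outside 100-1000 RFU were excluded. The fluorescence ratio sums target-cycle Cy3 intensity over buffer-cycle Cy3 intensity per cluster and averages it per switch-domain sequence.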
With TATTATGCAG, the switch fluorescence ratio came to 1.04.

With AGAGGTATTC, the switch fluorescence ratio came out at 1.01.

For the sequence TGCTCATAAT, the switch fluorescence ratio was found to be 0.993.

Consider TATACATACA, for which the switch fluorescence ratio was determined as 1.35.

Take ACCGCTGTA: the switch fluorescence ratio worked out at 0.981.

As for AACTGTTAGA, the switch fluorescence ratio came to 1.01.

For the sequence TCCTTAACGG, the switch fluorescence ratio stood at 1.01.

With AACTTTAAG, the switch fluorescence ratio is 1.02.

In the case of CCCACGAGGT, the switch fluorescence ratio is 1.41.

As for CGGCTTTTAG, the switch fluorescence ratio turned out to be 1.02.

Turning to CGCACGTTCG, the switch fluorescence ratio came to 1.05.

On to CTCAAATCCA, for which the switch fluorescence ratio was found to be 1.01.

CTAGCATCCC: the switch fluorescence ratio was 1.13.

Turning to ATTCTGGAGA, the switch fluorescence ratio is 1.02.

On to ATTGAAAGGT, for which the switch fluorescence ratio stood at 0.97.

TTGGGGGGC: the switch fluorescence ratio was 1.02.

Regarding CGCGTCCACG, the switch fluorescence ratio worked out at 0.96.

For the sequence AAAAGTAATG, the switch fluorescence ratio was found to be 1.02.

For the sequence AATCGCAGCA, the switch fluorescence ratio was 1.09.

As to TTCGAGGCCT, the switch fluorescence ratio worked out at 0.994.

On to TACTCTGTAT, for which the switch fluorescence ratio came to 1.11.

As to GATACGCAGG, the switch fluorescence ratio turned out to be 1.04.

Take CATGGTGGGC: the switch fluorescence ratio worked out at 0.902.

On to GACAGAGAAC, for which the switch fluorescence ratio is 1.03.

Turning to TATCGTCTCT, the switch fluorescence ratio worked out at 1.01.

For the sequence AGAGAAAAAA, the switch fluorescence ratio is 1.02.

Turning to TCGCCCTATC, the switch fluorescence ratio turned out to be 1.08.

Regarding ACTAGTAGGC, the switch fluorescence ratio is 0.998.

For the sequence ATCGAAGTAG, the switch fluorescence ratio turned out to be 1.

As to GGGAACCACG, the switch fluorescence ratio amounted to 1.03.

As to ACGTCCTACG, the switch fluorescence ratio worked out at 1.08.

TGCGTCTTTC: the switch fluorescence ratio turned out to be 0.998.

With TTACGATGTA, the switch fluorescence ratio was 1.03.

Regarding TTAAATATCA, the switch fluorescence ratio was 0.977.

Turning to GGAACACGCG, the switch fluorescence ratio amounted to 1.03.

With ACGGGAGCTA, the switch fluorescence ratio was determined as 1.08.

Take AGAATGGGAT: the switch fluorescence ratio was found to be 1.06.

For the sequence CGGTAATTTG, the switch fluorescence ratio came out at 0.979.

With TCCAGTTTGC, the switch fluorescence ratio amounted to 1.01.

As for TTAGACTGGG, the switch fluorescence ratio amounted to 1.06.

CGAGAGTAA: the switch fluorescence ratio is 1.12.

Turning to AGTCGTGAGA, the switch fluorescence ratio turned out to be 0.973.

On to TTTACACCCA, for which the switch fluorescence ratio was 1.11.

As to CTACTAGGTT, the switch fluorescence ratio came to 1.01.

On to ACCTGATTCT, for which the switch fluorescence ratio turned out to be 1.04.

On to TTGCAGGGCT, for which the switch fluorescence ratio is 1.03.

CAATACAGTT: the switch fluorescence ratio amounted to 1.03.

In the case of AGTTATTTTA, the switch fluorescence ratio was determined as 1.02.

Regarding AGGGCCTGCA, the switch fluorescence ratio came out at 1.

As for ACTTGTCGT, the switch fluorescence ratio came out at 1.03.

Consider TGGGGTAA, for which the switch fluorescence ratio came to 1.05.

In the case of ATTTTGCATG, the switch fluorescence ratio was 1.05.

On to GGAGCCTAAT, for which the switch fluorescence ratio is 1.02.

For GTCTATCTCC, the switch fluorescence ratio was determined as 1.1.

For the sequence TACTTAGGG, the switch fluorescence ratio is 1.04.

For TCGGGTCTAG, the switch fluorescence ratio was determined as 0.996.

Regarding ATTGGATTGT, the switch fluorescence ratio amounted to 0.983.

As to CGGATTAAGC, the switch fluorescence ratio was 0.958.

With GCTTGGGCCT, the switch fluorescence ratio turned out to be 1.02.

Consider AGATCGTGTA, for which the switch fluorescence ratio worked out at 1.04.

In the case of CCGGTACGGT, the switch fluorescence ratio was 1.04.

For the sequence TTAGGGAAGC, the switch fluorescence ratio was determined as 0.954.

TTCGTCACCG: the switch fluorescence ratio amounted to 0.977.

With ATGCGTTGGG, the switch fluorescence ratio worked out at 0.963.

Take GCGGTATAAC: the switch fluorescence ratio was 1.05.

As to CGCCTGTCAT, the switch fluorescence ratio worked out at 0.967.

For the sequence CCGTAGTAAG, the switch fluorescence ratio amounted to 3.89.
